According to PubChem BioAssay AID624173 (National Center for Advancing Translational Sciences (NCATS), 2012):
About 490 (0.12%) of roughly 410,000 compounds were called active. Inconclusive results, whose numbers are uncertain, are shown with a selection of clear calls. Calls come from the whole dose curve; as a rule, active = well fitted inhibition curve with a large enough effect; inconclusive = small, poorly fitted or top-dose-only effect; inactive = flat fitted curve, though single readings scatter. Potencies beside an inconclusive call are fits to weak or partial responses and may not hold up.
% is set by controls: 0 for no effect and ±100 for the full control effect; potency is the fitted concentration of half-maximal effect; tags give direction and shape of the fitted curve.
Note: nearly all actives have a fitted effect of over 50% in size.

Each molecule was assayed against pyruvate kinase (Trypanosoma brucei) (UniProt Q57TT1) (assay: qHTS of Trypanosoma Brucei Inhibitors). Details: TbPYK enzyme, Kinase-Glo Plus ATP luminescence, 45 min; series mostly up to 76.8 µM; activity, negative = inhibition: at the top concentration.
Method in brief: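 Readout: single end-point luminescence (Kinase-Glo Plus, 10 min). Reaction conditions were TbPYK/substrate plus 130 uM ADP, 45 min at RT, pH 7.2 TEA buffer. No-enzyme wells served as controls, and data were normalized before concentration-response fitting.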
`COc1cccc(C(=O)/C=C/Nc2cccc(O)c2)c1` was tested, and the Potency was inconclusive: 50.1 µM [inhibitor, single point].
With `Cc1cc(-c2n[nH]c(=S)n2/N=C/c2ccc(Cl)c([N+](=O)[O-])c2)n[nH]1` the Potency was inconclusive: 2.51 µM [inhibitor, full curve, poor fit].
`CS(=O)(=O)N1CCN(c2ccc([N+](=O)[O-])cc2C(F)(F)F)CC1` was tested, and the Potency was inconclusive: 31.6 µM [inhibitor, partial curve, poor fit].
With `O=c1[nH]nc(N2CCOCC2)c(=O)[nH]1` the Potency was inconclusive: 50.1 µM [inhibitor, single point].
In the case of `O=C1c2cccc3cccc(c23)C(=O)N1CCCc1n[nH]c(=S)n1-c1ccccc1`, the Potency was active: 7.08 µM.
In the case of `O=C1OC(c2ccc3ccccc3c2O)(c2ccc3ccccc3c2O)c2ccccc21`, the Potency was inconclusive: 35.5 µM [inhibitor, partial curve, poor fit].
With `COc1cccc(NC(=S)NC(=O)/C=C/c2ccco2)c1` the “activity, negative = inhibition” value was inactive: -12.9%.
For `CC1=C(C(=O)Nc2ccccc2)C2(CCCCC2)C(C#N)=C(S)N1`, the Potency was inconclusive: 39.8 µM [inhibitor, partial curve, poor fit].
With `S=c1[nH]nc(-c2cc(-c3ccccc3)n[nH]2)n1/N=C/c1ccc(Cl)c(Cl)c1` the Potency was inconclusive: 39.8 µM [inhibitor, partial curve, poor fit].
`COc1ccc(C(=O)CSc2nnc(CN3CCCCC3)n2-c2ccc(Cl)cc2)cc1OC` was tested, and the Potency was inconclusive: 28.2 µM [inhibitor, single point].
With `COC(=O)c1c(C)n(-c2ccc(OC)cc2)c2ccc(O)cc12` the Potency was inconclusive: 35.5 µM [inhibitor, single point].
For `CN1CCN(C2=C(Cl)C(=O)c3ccccc3C2=O)CC1`, the Potency was inconclusive: 50.1 µM [inhibitor, single point].
For `O=C1CC(NS(=O)(=O)c2ccc([N+](=O)[O-])cc2)CN1c1ccc2c(c1)OCCO2` (stereo unspecified), the “activity, negative = inhibition” value was inactive: -0.136%.
For `CC1(C)Cc2nc3oc4c(=S)nc[nH]c4c3cc2CO1`, the Potency was inconclusive: 15.8 µM [inhibitor, partial curve, poor fit].
`Cc1ccccc1NC(=O)c1sc2nc(N3CCOCC3)c3c(c2c1N)CCCC3` was tested, and the Potency was inconclusive: 12.6 µM [inhibitor, partial curve].
With `O=S(=O)(N/N=C1\CC(c2ccccc2)Oc2ccccc21)c1ccccc1` (stereo unspecified) the “activity, negative = inhibition” value was inactive: -3.44%.
With `COc1cccc(/C=C/c2ccc3cccc(O)c3n2)c1OC` the “activity, negative = inhibition” value was inactive: 2.17%.
For `COc1cccc(NC(=O)CNC(=O)c2ccc(OC)c(OC)c2)c1`, the “activity, negative = inhibition” value was inactive: -2.41%.
With `CCOC(=O)c1c(-c2ccc(OC)cc2)csc1NC(=O)C1CCCO1` (stereo unspecified) the Potency was inconclusive: 14.1 µM [inhibitor, partial curve, poor fit].
For `O=C(NCc1n[nH]c(=S)n1-c1ccc(Cl)c(Cl)c1)c1cccs1`, the Potency was inconclusive: 17.8 µM [inhibitor, partial curve, poor fit].
With `COc1ccc(CN2C(=O)NC(=O)/C(=C/c3cc(OC)c(OC)c(OC)c3)C2=O)cc1` the Potency was inconclusive: 35.5 µM [inhibitor, partial curve, poor fit].
With `Cc1ccc(-n2c(-c3ccccc3)n[nH]c2=S)c(C)c1` the Potency was active: 11.2 µM.
For `Cc1cccc(NC(=S)NC(=O)Cc2ccccc2)c1C`, the “activity, negative = inhibition” value was inactive: -1.35%.
With `O=C(O)c1cccc(Nc2nc(-c3ccc([N+](=O)[O-])cc3)nc3ccccc23)c1` the “activity, negative = inhibition” value was inactive: -8.37%.
For `COc1ccc(-n2c(-c3cnccn3)n[nH]c2=S)cc1`, the Potency was inconclusive: 17.8 µM [inhibitor, partial curve, poor fit].
With `Cc1ccc(-n2c(SCC(=O)c3c(N)n(C)c(=O)n(C)c3=O)nc3sc4c(c3c2=O)CCCC4)c(C)c1` the “activity, negative = inhibition” value was inactive: -3.14%.
With `COc1ccc(-c2nc(S(=O)(=O)c3ccccc3)c(N3CCOCC3)o2)cc1` the “activity, negative = inhibition” value was inactive: 6.67%.
`CN1CCN(C(=O)c2sc(=S)n(-c3ccccc3)c2N)CC1` was tested, and the Potency was inconclusive: 12.6 µM [inhibitor, partial curve, poor fit].
In the case of `C/C(=N/N=C/c1ccc(N(C)C)cc1)c1ccccc1`, the Potency was inconclusive: 22.4 µM [inhibitor, partial curve].
`Cc1[nH]c2ccc(-c3nnc(SCC(=O)c4ccccc4F)o3)cc2c1C` was tested, and the Potency was inconclusive: 12.6 µM [inhibitor, partial curve].
`Cc1ccc(OCC(=O)Nc2c(C(=O)c3ccc(Cl)cc3)oc3ccccc23)cc1C` was tested, and the “activity, negative = inhibition” value was inactive: 3.37%.
For `N#C/C(=C/c1ccc(N2CCCCCC2)o1)c1cccc(F)c1`, the Potency was inconclusive: 28.2 µM [inhibitor, partial curve].
`O=C(O)c1ccc(NS(=O)(=O)c2ccc3c(c2)C2C=CCC2C(c2ccccc2F)N3)cc1` (stereo unspecified) was tested, and the Potency was inconclusive: 17.8 µM [inhibitor, partial curve, poor fit].
In the case of `Cc1ccsc1C(=O)N1CC(=O)Nc2ccccc21`, the “activity, negative = inhibition” value was inactive: -0.985%.
With `Cc1ccc(-n2nnc(-c3nccs3)n2)cc1` the Potency was inconclusive: 31.6 µM [inhibitor, single point].
For `Cc1ccc(S(=O)(=O)C=CS(=O)(=O)c2ccc(C)cc2)cc1`, the Potency was inconclusive: 28.2 µM [inhibitor, partial curve, poor fit].
In the case of `C=CCOc1ccc2ccccc2c1CNn1cn[nH]c1=S`, the Potency was inconclusive: 7.08 µM [inhibitor, partial curve].
With `Cc1ccc(-c2n[nH]c(=S)n2/N=C/C=C\c2ccccc2[N+](=O)[O-])cc1` the Potency was inconclusive: 6.31 µM [inhibitor, full curve].
In the case of `CCn1c(-c2cccnc2)n[nH]c1=S`, the Potency was inconclusive: 15.8 µM [inhibitor, partial curve, poor fit].
`Oc1cc2c(cc1O)C1c3ccc(O)c(O)c3OCC1(O)C2` (stereo unspecified) was tested, and the Potency was active: 10 µM.
For `CCOc1ccc(S(=O)(=O)N2CCN(Cc3nc4ccc(C)cc4o3)CC2)cc1`, the “activity, negative = inhibition” value was inactive: -2.23%.
For `NC(=O)c1c(NC(NC(=O)c2ccco2)(C(F)(F)F)C(F)(F)F)sc2c1CCCC2`, the Potency was inconclusive: 25.1 µM [inhibitor, partial curve].
In the case of `O=C(O)C(c1ccccc1)C1(O)CCC1` (stereo unspecified), the “activity, negative = inhibition” value was inactive: 9.23%.
With `C=C(C)CSc1cc(C)nc2c(-c3ccccc3)c(C)nn12` the Potency was inconclusive: 35.5 µM [inhibitor, partial curve].
For `CN(C)c1ccc(/C=N/n2c(-c3cccnc3)n[nH]c2=S)cc1`, the Potency was active: 2.82 µM.
`CC1(C(=O)OCC(=O)Nc2nc(-c3ccc(F)c(F)c3)cs2)CC1(Cl)Cl` (stereo unspecified) was tested, and the “activity, negative = inhibition” value was inactive: -7.25%.
With `Cc1ccc(-n2c(SCC(=O)N3Cc4ccccc4CC3C(=O)O)nnc2-c2cccnc2)c(C)c1` (stereo unspecified) the Potency was inconclusive: 17.8 µM [inhibitor, partial curve, poor fit].
In the case of `S=c1[nH]nc(CSc2nc3ccccc3s2)n1Cc1ccccc1`, the Potency was inconclusive: 10 µM [inhibitor, partial curve].
For `S=c1[nH]c(-c2ccccc2)cn1/N=C/c1ccncc1`, the Potency was inconclusive: 8.91 µM [inhibitor, partial curve].
With `NC(=O)c1c(NC(=O)CCCn2cnc([N+](=O)[O-])n2)sc2c1CCCC2` the Potency was inconclusive: 2.51 µM [inhibitor, partial curve, poor fit].
`O=C(Cn1c(=O)oc2ccccc21)N(Cc1ccccc1)C1CCS(=O)(=O)C1` (stereo unspecified) was tested, and the Potency was inconclusive: 35.5 µM [inhibitor, single point].
In the case of `Cc1ccc(-n2c(-c3cc(C)n(C)n3)n[nH]c2=S)cc1`, the Potency was inconclusive: 7.08 µM [inhibitor, full curve].
In the case of `Cc1[nH]n(-c2ccccc2)c(=S)c1C=NCCCN=Cc1c(C)[nH]n(-c2ccccc2)c1=S`, the Potency was inconclusive: 15.8 µM [inhibitor, partial curve, poor fit].
In the case of `COc1ccc(C(=O)Nc2cccc(OC)c2)cc1`, the Potency was inconclusive: 17.8 µM [inhibitor, partial curve, poor fit].
`O=C(Nc1ccc(Cl)cc1)[C@@H]1[C@@H]2C(=O)N(c3ccc(Cl)cc3)C(=O)[C@@H]2[C@H]2C=CC=NN21` was tested, and the Potency was inconclusive: 31.6 µM [inhibitor, single point].
In the case of `Cn1c(CCCNC(=O)c2ccco2)nc2ccccc21`, the “activity, negative = inhibition” value was inactive: -15%.
With `Cc1csc(NC(=O)c2nc3nccc(C)n3n2)n1` the Potency was inconclusive: 28.2 µM [inhibitor, partial curve, poor fit].
For `Cc1cc2nnc(SC3CCCCN(C(=O)c4ccc(F)cc4)C3=O)n2c2ccccc12` (stereo unspecified), the Potency was inconclusive: 28.2 µM [inhibitor, partial curve, poor fit].
`CCOC(=O)COc1cc(C)c(Cl)cc1C(=O)c1ccn2nc(-c3ccc(OC)cc3)cc2n1` was tested, and the “activity, negative = inhibition” value was inactive: -2.08%.
In the case of `COc1ccc2[nH]c3c4c(ccc3c2c1)C(=O)C=CC4=O`, the Potency was inconclusive: 7.94 µM [inhibitor, partial curve].
For `COc1ccc(/C=C/C(=O)Oc2cc(C)[nH]c(=O)c2[N+](=O)[O-])cc1OC`, the “activity, negative = inhibition” value was inactive: 6.8%.
`COc1cccc(C2CC(=O)N3CN(c4ccccc4F)CSC3=C2C#N)c1` (stereo unspecified) was tested, and the Potency was active: 3.55 µM.
In the case of `S=c1[nH]nc(-c2cc(-c3ccccc3)n[nH]2)n1/N=C/c1ccc(Br)s1`, the Potency was inconclusive: 17.8 µM [inhibitor, partial curve, poor fit].
`Cc1cccc(/C=N/n2c(-c3ccncc3)n[nH]c2=S)c1` was tested, and the Potency was inconclusive: 0.891 µM [inhibitor, full curve, poor fit].
For `O=C(c1ccccc1)c1cc2ccc(O)cc2oc1=O`, the Potency was inconclusive: 15.8 µM [inhibitor, partial curve, poor fit].
`C=CCn1c(CCn2c3ccccc3c3ccccc32)n[nH]c1=S` was tested, and the Potency was inconclusive: 20 µM [inhibitor, partial curve, poor fit].
